B1: LINE1-mini (parent)
chain: GGCAGAGCUCAACACAGCGUGGCAAAGUGGCUGUGGCUAGACUGCC

Read counts are not given, so values of variants with three or more changes are uncertain.

The variants in this series derive from B1. Put plainly: self-cleavage, relative activity (ratio to wild type); higher = more cleavage; in vitro, sequencing; the parent is a self-cleaving ribozyme.
On to A11C C13U G44U, for which the self-cleavage came out at 0. In the case of C10U A26C U34A it was 0.12; in that of A11C C13U G17A G27U G36C U38A U43C, 0.02. Take C10U C18A C23U C31G: the self-cleavage was determined as 0.06. Consider C10U A26C G27U, for which the self-cleavage is 0.11.

For C10U C15U G29C G44C, the self-cleavage turned out to be 0.2. Turning to C10U C15U C37U A39C, the self-cleavage stood at 0.03. In the case of C10U C23G U28C U34A G35A A39C it was 0. Consider C10U A26U G30U C31G G35A C45G C46A, for which the self-cleavage amounted to 0.02. For C10U A26C C46G, the self-cleavage amounted to 0.62. In the case of C10U C18G C23U G29C C31U it was 0.04; in that of C10U A26U U43C C46U, 0.11.

Regarding C10U U32A G36U, the self-cleavage is 0.04. Turning to C10U C15U G30U, the self-cleavage amounted to 0.08. In the case of C10U A26U A41C G44A it was 0.02.

On to A11C C15G A25C G30A C45U C46A, for which the self-cleavage stood at 0.

Consider C10U G19A A41U U43A, for which the self-cleavage worked out at 0.05.

In the case of C10U G17A C23U A24C U32A, the self-cleavage turned out to be 0.03. Take C10U C13A A14C C31A C37A: the self-cleavage was 0.02.

For C10U G17U C23A, the self-cleavage turned out to be 0.05. In the case of A11C C13A G22C C31A G35C it was 0. Regarding C10U A25G G29C A41G, the self-cleavage came out at 0.02. In the case of C10U C23G G36C G44U, the self-cleavage was 0.02. Turning to A11C A14U U20C, the self-cleavage stood at 0.03. In the case of C10U A26G U28C C37A it was 0. In the case of A11C A14U A24U U28C it was 0.01; in that of C10U A25U G29U U34A, 0.18.

As to C10U G27U C31G, the self-cleavage amounted to 0.13. Then C10U C18A C31G, with 0.12. In the case of A11C A16G C18A C31A U32C it was 0; in that of C10U G40U A41G, 0.03; in that of C10U G19C G27U G36A, 0.01. As to C10U G21C A39U, the self-cleavage is 0.06. In the case of C10U U34C A41C it was 0.01; in that of C10U C13A G36U, 0.05; in that of A11C A14U G36A C37U, 0.03.

As for C10U G27A G29C, the self-cleavage was determined as 0.16.

Take A11C C13U C15A C45A: the self-cleavage was 0.01. In the case of A11C A25U C46A it was 0.04; in that of C10U G19C G44U, 0.02. Then C10U G29C C31U A39U, with 1.7; and C10U G27C G36C C37A, with 0.02. Consider A11C C13G G17C A25C G29A, for which the self-cleavage came to 0.01. In the case of C10U C42A U43G, the self-cleavage was 0.03. Then C10U U32C C42U, with 0.07; and C10U C23G G36A C46A, with 0.05; and C10U G22U G40U, with 0.06. In the case of C10U G21U A25U G29U C42A it was 0.09; in that of A11C A12C A14C G27C C45U, 0.

In the case of A11C C13A C18U, the self-cleavage was found to be 0.01.

On to A11C A39C A41G U43A, for which the self-cleavage was 0.04. In the case of C10U G22C A41G, the self-cleavage amounted to 0.04. Then A11C A16G G17A C37U G44C, with 0.02.

C10U C18G U32G: the self-cleavage was found to be 0.06. In the case of C10U G22U G30C C31A U43A it was 0.01; in that of C10U G33A A41C, 0.03; in that of C10U G21C C23G U32G, 0.06.

Take C10U G17A U20C G40U: the self-cleavage came to 0.02. In the case of C10U C13G G27U U34G it was 0.03; in that of C10U U38A U43A, 0.03. Then C10U G17U C31U, with 0.24; and C10U G19U U32G C37U, with 0.02.

Consider C10U U32G G33A U43A, for which the self-cleavage came to 0.06. Then C10U C18U U20A, with 0.32; and C10U C31U G40C, with 0.05. In the case of A11C C15G C18A G22U it was 0.02; in that of A11C A16G G19A, 0.02; in that of C10U G22A A26G G27U C31G A41G, 0.02. Then C10U C18U A26U, with 0.11; and C10U G21C G44C, with 0.14; and A11C A25U C45A, with 0.01. In the case of C10U C18G G21U, the self-cleavage was found to be 0.09. For the variant A11C A12G G17A G21U A39U, the self-cleavage came out at 0. For C10U G19U A24C, the self-cleavage came out at 0.14. Then C10U C15U A16G A25U, with 0.73; and C10U U20A A39G G40U, with 0.02; and C10U G19A A41U, with 0.04. Take C10U U34A A39C: the self-cleavage was determined as 0.03.

With C10U G30U C45A, the self-cleavage worked out at 0.72. Then C10U U28G C31A, with 0.05; and C10U G40U C42U C45A, with 0.02; and C10U G19C G30A C42A, with 0.05. C10U G22A C45G: the self-cleavage turned out to be 0.06. C10U U34A C45G: the self-cleavage is 0.05. For A11C C13G G19U, the self-cleavage came out at 0.02. Then A11C A24G A25C G30A C37A A39C, with 0.01. In the case of C10U C15U G29C it was 0.5. Turning to A11C A25G G27A C31A A39G, the self-cleavage came to 0.

With C10U G33U U34G, the self-cleavage turned out to be 0.05. As for C10U G44U C46U, the self-cleavage turned out to be 0.03. Take C10U G17A A26U G36C: the self-cleavage was 0.04. In the case of C10U C13U A14U C46A, the self-cleavage came to 0.11. Regarding C10U G27C C37A, the self-cleavage amounted to 0.02. In the case of C10U G17U C46U it was 0.09. As for C10U C13A G21A, the self-cleavage is 0.03. Then C10U A25C C42A, with 0.04; and C10U C13U G17A U20G A26C U28G, with 0.03. Take C10U G21C G22C U28G G33A: the self-cleavage is 0.13. In the case of A11C A16U C18U G21U G29A it was 0.02; in that of C10U U20C G35U, 0.04; in that of C10U U32A U34A, 0.01. With C10U G30U C31U, the self-cleavage was 0.31.

Regarding C10U C18U U32A, the self-cleavage came out at 0.04.

Take C10U A25C A41U: the self-cleavage was found to be 0.05. Take C10U A39U C45G: the self-cleavage was 0.34. C10U G22C G29U G36A: the self-cleavage was 0.03. Then C10U U28G C42G, with 0.02. On to C10U G19A C23U A24C A41G, for which the self-cleavage came out at 0.09. On to C10U G27A G40A C46A, for which the self-cleavage is 0.01. On to A11C C13G G17U G19A G22U A26G, for which the self-cleavage amounted to 0.01. Then C10U G29U U34C, with 0.04.

Consider C10U U20G A24U A25C C31A, for which the self-cleavage was 0.06.

For the variant C10U C23U G29U G30U, the self-cleavage amounted to 0.41.

For C10U C23A U32G U43G, the self-cleavage was found to be 0.01. As for A11C A24C G30A, the self-cleavage was found to be 0.03. In the case of C10U A26U G29C G30C G40A it was 0.02. Then C10U G21A G40U, with 0.03; and C10U C13U A25C G27A, with 0.07. On to A11C A12G G21C A25G, for which the self-cleavage was 0.02. Then C10U C13G A24U U28C, with 0.03; and C10U G21U A41G, with 0.02.

Turning to C10U G29A G33C U34A, the self-cleavage came out at 0.02.

Consider C10U G19A C31A, for which the self-cleavage worked out at 1.36. In the case of C10U C13G C18A C23U it was 0.06. Turning to C10U C15A C37G, the self-cleavage was found to be 0.02.

As for C10U C15G C18G, the self-cleavage is 0.02. As to A11C A24C A25U, the self-cleavage came to 0.04.

For the variant C10U C18A U20A G30C A39G, the self-cleavage is 0.02. Then C10U G17U G19A A25G G40A G44C, with 0.02. On to A11C A16G G35A G36U, for which the self-cleavage came out at 0.01. Turning to A11C A14G G17A G30A G35A U38G, the self-cleavage is 0.01. In the case of A11C C15A A16C U43A it was 0.04; in that of A11C A14C U20C C37A, 0.02. Then C10U G17U C42G, with 0.02; and C10U C23U A24G, with 0.47. Take A11C A24C C31A G35U G36C: the self-cleavage is 0.01. In the case of C10U G17U C37U it was 0.12. In the case of C10U C18U C23G A24U G36A it was 0.03. As for C10U C15G G21C U43C, the self-cleavage turned out to be 0. In the case of C10U G35U A39U it was 0.03; in that of C10U C13U U32A G40A, 0.02. In the case of C10U G17C C23U G33A U38G A41G C42G it was 0.04. C10U C15U A16U U32G G35U C46U: the self-cleavage came out at 0.01.

For the variant A11C C13G A16U G21A U43G, the self-cleavage worked out at 0. Take C10U G22U G27U: the self-cleavage is 0.2. In the case of C10U C13A A25G A41G, the self-cleavage is 0.02. As for C10U G29U G30U, the self-cleavage came out at 0.3. Then C10U C15U A25U U38A, with 0.05. Then C10U G29U A39U, with 0.65. In the case of A11C A12G G21U G29U it was 0.02. With C10U C31G G40U, the self-cleavage was determined as 0.05. In the case of C10U G29A U32C it was 0.02. Consider A11C C13G C15U C31G A41C, for which the self-cleavage worked out at 0.01. In the case of C10U G17C G22U it was 0.58. Turning to A11C C13G G33U, the self-cleavage was determined as 0.02. In the case of A11C C13U A16C G22A U38A it was 0; in that of A11C A12G C23G U32G G33A G35C C45G C46G, 0; in that of C10U C18U C45U, 0.96. In the case of C10U G22A G44U it was 0.09; in that of C10U C42A C45A, 0.01. Take A11C C13G C23G U38G: the self-cleavage was determined as 0. Consider C10U G21U A39C, for which the self-cleavage was determined as 0.16. In the case of C10U U32G U38A it was 0.04; in that of A11C A12U A25C C31A U38A, 0.01; in that of C10U U34G G35A, 0.04. Consider A11C A26U G40C, for which the self-cleavage was determined as 0. Then A11C C13U U28A, with 0.02.

(Values after the RNAGym collection of RNA variant scans (doi:10.7554/elife.90254).)
